Test results as given in patent US20240360189A1 (LUXEMBOURG INSTITUTE OF HEALTH LIH, published 2024).

T1: CD20 on Daudi lymphoma cells (UniProt P11836 1-297, limits assumed)
T1 construct: whole, on cells; also called CD20 antigen; CD20-positive DAUDI cells
T1 sequence (looked up): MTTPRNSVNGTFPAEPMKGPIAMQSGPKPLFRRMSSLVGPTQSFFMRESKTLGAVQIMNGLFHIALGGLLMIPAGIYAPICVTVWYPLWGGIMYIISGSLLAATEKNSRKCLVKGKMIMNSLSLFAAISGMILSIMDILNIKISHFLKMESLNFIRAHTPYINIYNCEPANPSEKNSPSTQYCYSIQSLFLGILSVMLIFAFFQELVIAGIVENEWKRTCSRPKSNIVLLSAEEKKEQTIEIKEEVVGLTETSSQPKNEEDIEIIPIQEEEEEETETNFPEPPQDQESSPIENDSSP


Legend:
[1] = target: T1, CD20 on Daudi lymphoma cells; test: flow cytometry on mixed CFSE-Daudi and PKH26-BT474 cells, anti-human IgG/AF647
[2] = target: T2, HER2 on BT474 breast tumour cells (human, UniProt P04626); test: as above
T2 construct: whole, on cells; also called HER2-positive BT474 cells

Row | Binder | binding result [1] | binding result [2]
1 | monospecific 47D5 VHH anti-HER2 pseudo-IgG (47D5 anti-HER2 VHH.C4bp(beta).Fc) (Fc fusion, also called 47D5 pseudo-IgG) RSKVQLVESGGGLVQPGGSLRLSCAASGSIFGFNDMAWYRQAPGKQRELVALISRVGVTSSADSVKGRFTISRVNAKDTVYLQMNSLKPEDTAVYYCYMDQRLDGSTLAYWGQGTQVTVSSGSGAGGGGSSGAGGSAGGGGSSGGGGSAGGGGSIQEAPKPECEKALLAFQESKNLCEAMENFMQQLKESGMTMEELKYSLELKKAELKAKLL[human IgG1 Fc omitted here] | no binding (tested: saturating concentrations) | binds
2 | RTX scFv.C4bp(beta).Fc pseudo-IgG (Fc fusion, also called pseudo-RTX; RTX pseudo-IgG) RSQIVLSQSPAILSASPGEKVTMTCRASSSVSYIHWFQQKPGSSPKPWIYATSNLASGVPVRFSGSGSGTSYSLTISRVEAEDAATYYCQQWTSNPPTFGGGTKLEIKGGSSRSSSSGGGGSGGGGQVQLQQPGAELVKPGASVKMSCKASGYTFTSYNMHWVKQTPGRGLEWIGAIYPGNGDTSYNQKFKGKATLTADKSSSTAYMQLSSLTSEDSAVYYCARSTYYGGDWYFNVWGAGTTVTVSASGAGGGGSSGAGGSAGGGGSSGGGGSAGGGGSIQEAPKPECEKALLAFQESKNLCEAMENFMQQLKESGMTMEELKYSLELKKAELKAKLL[human IgG1 Fc omitted here] |  | no binding (tested: saturating concentrations)
